# Results: PubChem BioAssay AID504339 (National Center for Advancing Translational Sciences (NCATS), 2011)
# Among all 390,000 compounds or so, about 17,000 (4.4%) were called active. The shares of active, inactive and inconclusive entries below differ from those in the screen. Calls follow the shape of the dose curve; as a rule, active = well fitted inhibition curve with a large enough effect; inconclusive = small, poorly fitted or top-dose-only effect; inactive = no such curve, though single readings can be large or run the other way. A potency beside an inconclusive call is a rough fit, not a confirmed value.
# Target: Lysine-specific demethylase 4A (Homo sapiens) (UniProt O75164)
# Assay: qHTS Assay for Inhibitors of JMJD2A-Tudor Domain; also: nearly all actives have a fitted effect of over 50% in size
# Settings: AlphaScreen JMJD2A-Tudor / H3K4me3 peptide binding; series mostly up to 114 µM
# Source text: JMJD2A is a jumonji-domain-containing lysine demethylase that uses Fe(II) together with 2-OG to effect oxidative demethylation of histones. Methylation is one of many […] modification that affect epigenetic transcription. […] It is proposed that the functions of JmjD2A binding to the histones, is to maintain marks after they are installed and to spread the modifications by […], establishing a self-propagating cycle for rapid methylation over a large area of chromatin. […] Thus, small molecule targeting of the JMJD2A-tudor domain interaction with its target methylhistone mark is expected to enable sophisticated experiments probing the fine regulatory pathways leading to selective demethylation of a given methyllysine locus based on the methylation state of adjacent histone marks. A quantitative high throughput AlphaScreen has been developed to identify small molecule inhibitors based on a protocol published by NCGC and SGC [4].
# Although AlphaScreen has significant advantages with its utility in a variety of epigenetic target assays, the primary screening data provided in this deposition should be used with caution due to the prevalence of screening artifacts. The top compound concentration tested was high (>100uM) in this assay, which increases number of actives and potential artifacts. An AlphaScreen counterscreen is highly recommended to be run against any putative actives to eliminate non-specific artifacts. Alternatively, one can use other AlphaScreen assays in PubChem to filter out promiscuous hits.
# [1] Lee, J. et al. Distinct binding modes specify the recognition of methylated histone H3K4 and H4K20 by JMJD2A-tudor. Nat Struct Mol Biol. 15(1); 109-11. 2008. PMID: 18084306
# [2] Yasgar, et al. Compound Management for Quantitative High-Throughput Screening. JALA. 2008 Apr;13(2):79-89. PMID: 18496600
# [3] Inglese, et al. Quantitative high-throughput screening: a titration-based approach that efficiently identifies biological activities in large chemical libraries. Proc Natl Acad Sci. 1;103(31):11473-8. 2006. PMID: 16864780
# [4] Quinn et al. A homogeneous method for investigation of methyl-dependent protein-protein interactions in epigenetics. Nucleic Acids Res., 38(2):e11. 2010. PMID: […]
# [5] Baell,Holloway. New substructure filters for removal of pan assay interference compounds (PAINS) from screening libraries and for their exclusion in bioassays. J Med Chem. 53(7):2719-40. 2010. PMID: 20131845
# NIH Molecular Libraries Probe Production Network [MLPCN]
# NIH Chemical Genomics Center [NCGC]
# Structural Genomics Consortium (SGC)
# To each well of a 1,536w plate, 2ul of JMJD2A-Tudor (final 100nM) and 1ul biotinylated histone peptide methylated at Lys4 [b-H3(1-18)K4me3] (final 50nM) were added in 1x PBS buffer, pH 7.4, containing 0.01% Tween-20, using a nanoliter dispenser. Formation of a protein-peptide complex proceeded at room temperature for 30 min. A Kalypsys pin-tool transferred 23nl of library compound solution in DMSO to each well. Following a 30 min incubation of the protein-peptide complex with compounds at room temperature, a mixture of 40 µg/mL each streptavidin-coated donor and nickel chelate acceptor AlphaScreen beads (final 10 µg/mL) was added in a 1ul dispense for a final volume of 4ul, followed by a brief centrifugation (1000 rpm, 1 min). Plates were incubated protected from the light for 20 min at room temperature. Microplates were then read on an EnVision multilabel plate reader using the 1,536 plate HTS AlphaScreen aperture (excitation time 80 ms, measurement time 240 ms).
# Potency is read from the fitted curve at half-maximal effect; tags tell the direction and shape of the fitted curve.
# Sequence of UniProt O75164 (O75164 whole entry, looked up, the tested form may be a part): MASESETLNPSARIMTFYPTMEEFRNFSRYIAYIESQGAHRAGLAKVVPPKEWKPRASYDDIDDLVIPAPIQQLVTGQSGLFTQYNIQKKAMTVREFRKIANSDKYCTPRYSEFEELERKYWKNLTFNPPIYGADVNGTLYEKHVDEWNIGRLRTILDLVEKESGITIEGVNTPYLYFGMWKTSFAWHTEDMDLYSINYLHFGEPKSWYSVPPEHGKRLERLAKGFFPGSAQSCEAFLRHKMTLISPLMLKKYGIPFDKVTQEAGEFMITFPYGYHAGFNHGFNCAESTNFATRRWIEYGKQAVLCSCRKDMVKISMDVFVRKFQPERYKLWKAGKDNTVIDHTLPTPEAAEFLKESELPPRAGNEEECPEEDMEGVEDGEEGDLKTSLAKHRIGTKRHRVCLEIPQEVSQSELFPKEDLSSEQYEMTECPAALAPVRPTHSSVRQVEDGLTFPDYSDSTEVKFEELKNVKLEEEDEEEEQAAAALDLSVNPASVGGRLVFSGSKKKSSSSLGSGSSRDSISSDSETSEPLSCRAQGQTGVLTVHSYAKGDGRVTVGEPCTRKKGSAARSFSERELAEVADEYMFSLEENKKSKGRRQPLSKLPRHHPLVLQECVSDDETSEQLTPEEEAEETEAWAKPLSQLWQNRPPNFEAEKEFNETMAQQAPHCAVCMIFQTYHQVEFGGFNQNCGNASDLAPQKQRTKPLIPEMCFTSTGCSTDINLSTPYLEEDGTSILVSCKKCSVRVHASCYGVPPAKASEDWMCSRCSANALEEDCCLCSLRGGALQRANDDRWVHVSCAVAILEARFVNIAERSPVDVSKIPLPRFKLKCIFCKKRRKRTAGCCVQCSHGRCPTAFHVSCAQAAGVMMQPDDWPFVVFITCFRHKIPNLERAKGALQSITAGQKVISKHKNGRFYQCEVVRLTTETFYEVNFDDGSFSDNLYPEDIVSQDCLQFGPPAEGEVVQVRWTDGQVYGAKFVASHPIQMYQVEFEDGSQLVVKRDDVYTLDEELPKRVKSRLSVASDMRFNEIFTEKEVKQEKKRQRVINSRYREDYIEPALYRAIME
row,SMILES,Potency
1,CCc1nc2ccc(C(=O)NC3CCC(C)CC3)cc2nc1CC (stereo unspecified),"inconclusive: 28.2 µM [inhibitor, full curve, poor fit]"
2,Cc1cccc(COc2ccc(/C=N/NC(=O)c3nnn(-c4nonc4N)c3C)cc2)c1,"inconclusive: 14.1 µM [inhibitor, partial curve, poor fit]"
3,O=C1C(Nc2cccc(O)c2)=C(N2CCCCC2)C(=O)c2ccccc21,active: 14.1 µM
4,COc1ccc(C(C)C)cc1S(=O)(=O)NCCc1c(C)[nH]c2c(Cl)cccc12,"inconclusive: 28.2 µM [inhibitor, full curve]"
5,CSc1ccc(CCNC(=O)C2CCCN(S(=O)(=O)N(C)c3ccc(F)cc3)C2)cc1 (stereo unspecified),inactive
6,CCOc1cccc(NC(=O)CSc2sc3c(O)cc(=O)[nH]c3c2C#N)c1,inactive
7,COc1cccc(/C=N/Nc2nccnc2Cl)c1O,active: 39.8 µM
8,CC1CCCC(C)N1/N=C/c1ccccc1Br (stereo unspecified),"inconclusive: 39.8 µM [inhibitor, partial curve]"
9,CC1CCN(C(=O)C(C)OC(=O)CSc2ccc([N+](=O)[O-])cc2)CC1 (stereo unspecified),"inconclusive: 50.1 µM [inhibitor, partial curve]"
10,COc1ccc2[nH]c(=O)cc(C(=O)O)c2c1,"inconclusive: 15.8 µM [inhibitor, full curve, poor fit]"
11,COc1ccc(-c2[nH]ncc2Oc2ccccc2OC)c(O)c1,"inconclusive: 50.1 µM [inhibitor, partial curve]"
12,COC(=O)c1cnc(NNS(=O)(=O)c2ccc(C(F)(F)F)cc2)nc1C(F)(F)F,"inconclusive: 100 µM [inhibitor, single point]"
13,Cc1cccc(NC(=O)CNC(=O)CSc2nc(N)cc(N)n2)c1C,inactive
14,Cc1cc2c(=Cc3ccc(N(C)C)cc3)c3ccccc3n2[n+]1C,active: 44.7 µM
15,CCOc1ccc(N(CC(=O)Nc2ccccc2C(=O)N2CCCC2)S(C)(=O)=O)cc1,inactive
16,Oc1ccc(C2CNCc3sccc32)cc1O (stereo unspecified),active: 50.1 µM
17,Cc1ccc(C)c(NC(=S)NCC(c2ccccc2)N(C)C)c1 (stereo unspecified),"inconclusive: 100 µM [inhibitor, single point]"
18,CCOC(=O)C1(Cc2cccc(OC)c2)CCN(C/C=C/c2ccccc2)CC1,"inconclusive: 89.1 µM [inhibitor, partial curve]"
19,Cc1nc(N2CCN(Cc3nc4ccccc4[nH]3)CC2)c2oc3ccccc3c2n1,"inconclusive: 89.1 µM [inhibitor, single point]"
20,Cc1ccc(NC(=O)CCn2c(=O)[nH]c3ccsc3c2=O)cc1C,inactive
21,Cc1ccc(-c2n[nH]c(=S)n2/N=C/c2c(C)[nH]n(-c3ccccc3)c2=O)cc1,"inconclusive: 4.47 µM [inhibitor, full curve, poor fit]"
22,O=[N+]([O-])c1ccccc1NCc1ccccc1Cl,"inconclusive: 8.91 µM [inhibitor, full curve]"
23,Cc1noc(CN(C)c2ncnc3ccc(-c4ccc5c(c4)OCO5)cc23)n1,"inconclusive: 79.4 µM [inhibitor, partial curve]"

row,SMILES,Potency
1,CC(C)c1ccc(NC2CCCN(C(=O)c3cc(C(C)C)[nH]n3)C2)cc1 (stereo unspecified),"inconclusive: 56.2 µM [inhibitor, partial curve]"
2,COCCCn1c(Cc2csc(Nc3cccc(Cl)c3)n2)nnc1SCC(=O)OC1CCCCC1,active: 44.7 µM
3,COc1ccc(OCc2ccc(C(=O)NN)cc2)cc1,"inconclusive: 50.1 µM [inhibitor, partial curve]"
4,COCCn1c(SCC(=O)c2ccc(F)cc2)nnc1C(C)C,active: 44.7 µM
5,Cc1ccc(Nc2nc(-c3ccc(O)c(O)c3)cs2)nc1,active: 31.6 µM
6,CC1CCCCC1NC(=O)CSc1nncs1 (stereo unspecified),inactive
7,COc1ccc(OC)c(-c2csc(NC(=O)Cc3cccs3)n2)c1,"inconclusive: 35.5 µM [inhibitor, partial curve]"
8,CC(C)Cn1cc(C(=O)N2CCN(c3ccccn3)CC2)c2c3ccccc3n(C)c2c1=O,"inconclusive: 79.4 µM [inhibitor, partial curve]"
9,COc1cc(NC(=O)c2ccc3c(SCC(=O)O)c4c(nc3c2)CCCC4)cc(OC)c1OC,inactive
10,COC(=O)c1cc(C(=O)c2cc(F)ccc2O)cn2c(=O)c3c(C)c(C)sc3nc12,active: 39.8 µM
11,CCCC(=O)NC(=S)Nc1cccc(NC(=O)c2ccccc2Cl)c1,"inconclusive: 22.4 µM [inhibitor, single point]"
12,COc1ccc(NC(=O)CC2C(=O)N(CCc3ccccc3)C(=S)N2Cc2cccnc2)cc1 (stereo unspecified),"inconclusive: 39.8 µM [inhibitor, partial curve]"
13,Brc1ccc(-c2nn3c(-c4ccco4)nnc3s2)o1,"inconclusive: 39.8 µM [inhibitor, partial curve]"
14,CCN1C(=NCCCCO)N[C@@H](c2cccc(F)c2)C(C(=O)OC)=C1C,"inconclusive: 35.5 µM [inhibitor, single point]"
15,O=C(NCc1ccccn1)c1cc(-c2ccc(-c3ccccc3)cc2)nc2ccccc12,"inconclusive: 100 µM [inhibitor, single point]"
16,Cc1ccc(NC(=O)CNCc2ccc(Cl)cc2Cl)cc1S(=O)(=O)N(C)C,active: 20 µM
17,CC(/C=N/n1c(-c2ccc(Cl)cc2)n[nH]c1=S)=C\c1ccco1,"inconclusive: 44.7 µM [inhibitor, partial curve]"
18,CNc1ccc(C2(O)C(=O)c3ccccc3C2=O)cc1,inactive
19,Cc1cccc(-c2csc(N)c2C(=O)OC(C)C)c1,"inconclusive: 79.4 µM [inhibitor, partial curve]"
20,CNc1nc(C(=O)O)nc(N2CCOCC2)n1,active: 4.47 µM
21,CCN(CC(=O)Nc1ccc(NC(C)=O)cc1)C(=O)CSc1ncnc2sc(C)c(C)c12,"inconclusive: 50.1 µM [inhibitor, partial curve]"
22,Cc1nn(C)c2c1c(C(F)(F)F)cc(=O)n2CC(=O)Nc1ccc(F)cc1F,inactive
23,O=C(C1=C[C@H](c2ccc(C(F)(F)F)cc2)C[C@H](OCCCCO)O1)N1CCN(Cc2ccc3c(c2)OCO3)CC1,"inconclusive: 50.1 µM [inhibitor, partial curve]"
